From US20100249184A1 (MOUNT SINAI SCHOOL OF MEDICINE, published 2010)

B1: uPAR^S245A, full-length glycolipid-anchored, expressed on cells (receptor)
chain: not shown
modifications: GPI anchor
B2: soluble uPAR ([…]) R239A (receptor)
chain: not shown
notes: range […]; also called suPAR^R239A
B3: soluble uPAR ([…]) E33A (receptor)
chain: not shown
modifications: glycosylated (expressed in CHO cells)
notes: range […]; Mutation in domain I; also called suPAR^E33A
B4: soluble uPAR ([…]) H249A (receptor)
chain: not shown
notes: range […]; also called suPAR^H249A
B5: soluble uPAR ([…]) L66A (receptor)
chain: not shown
notes: range […]
B6: soluble uPAR ([…]) S245A (receptor)
chain: not shown
notes: range […]; also called suPAR^S245A; S245A mutant uPAR

Biological target: α5β1-integrin endogenous on HEK293, D-HEp3 and T-HEp3 cells (human, UniProt P08648 42-1049; P05556)
Chain of UniProt P08648 (P08648 42-1049, chain 1 of 2): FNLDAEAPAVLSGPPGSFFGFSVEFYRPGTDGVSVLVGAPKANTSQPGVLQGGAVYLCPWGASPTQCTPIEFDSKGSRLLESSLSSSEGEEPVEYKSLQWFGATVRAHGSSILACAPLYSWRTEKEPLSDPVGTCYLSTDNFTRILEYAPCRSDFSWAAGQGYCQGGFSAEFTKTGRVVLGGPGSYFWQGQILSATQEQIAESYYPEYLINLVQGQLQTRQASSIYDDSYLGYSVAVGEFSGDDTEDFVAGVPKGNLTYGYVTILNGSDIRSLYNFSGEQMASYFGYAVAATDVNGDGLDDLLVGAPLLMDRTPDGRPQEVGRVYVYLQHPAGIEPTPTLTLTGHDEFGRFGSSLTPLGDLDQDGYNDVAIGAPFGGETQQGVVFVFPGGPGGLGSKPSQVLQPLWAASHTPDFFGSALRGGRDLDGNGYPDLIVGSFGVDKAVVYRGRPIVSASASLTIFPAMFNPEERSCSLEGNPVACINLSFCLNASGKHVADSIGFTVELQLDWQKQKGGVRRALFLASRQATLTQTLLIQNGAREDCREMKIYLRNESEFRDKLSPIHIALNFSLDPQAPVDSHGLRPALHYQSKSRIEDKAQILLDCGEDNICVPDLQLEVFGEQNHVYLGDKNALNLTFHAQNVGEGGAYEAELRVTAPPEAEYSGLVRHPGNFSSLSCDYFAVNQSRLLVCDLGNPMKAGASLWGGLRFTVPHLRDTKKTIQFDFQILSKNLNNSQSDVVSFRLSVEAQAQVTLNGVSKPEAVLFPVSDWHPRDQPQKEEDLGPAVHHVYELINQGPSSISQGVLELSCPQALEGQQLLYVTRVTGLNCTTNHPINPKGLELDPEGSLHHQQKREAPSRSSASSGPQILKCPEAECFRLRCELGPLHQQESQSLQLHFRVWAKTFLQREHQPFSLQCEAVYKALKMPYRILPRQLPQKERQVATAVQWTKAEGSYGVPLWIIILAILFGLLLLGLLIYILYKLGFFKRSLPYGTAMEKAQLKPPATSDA
Chain of UniProt P08648 (P05556 21-798, chain 2 of 2, further chain): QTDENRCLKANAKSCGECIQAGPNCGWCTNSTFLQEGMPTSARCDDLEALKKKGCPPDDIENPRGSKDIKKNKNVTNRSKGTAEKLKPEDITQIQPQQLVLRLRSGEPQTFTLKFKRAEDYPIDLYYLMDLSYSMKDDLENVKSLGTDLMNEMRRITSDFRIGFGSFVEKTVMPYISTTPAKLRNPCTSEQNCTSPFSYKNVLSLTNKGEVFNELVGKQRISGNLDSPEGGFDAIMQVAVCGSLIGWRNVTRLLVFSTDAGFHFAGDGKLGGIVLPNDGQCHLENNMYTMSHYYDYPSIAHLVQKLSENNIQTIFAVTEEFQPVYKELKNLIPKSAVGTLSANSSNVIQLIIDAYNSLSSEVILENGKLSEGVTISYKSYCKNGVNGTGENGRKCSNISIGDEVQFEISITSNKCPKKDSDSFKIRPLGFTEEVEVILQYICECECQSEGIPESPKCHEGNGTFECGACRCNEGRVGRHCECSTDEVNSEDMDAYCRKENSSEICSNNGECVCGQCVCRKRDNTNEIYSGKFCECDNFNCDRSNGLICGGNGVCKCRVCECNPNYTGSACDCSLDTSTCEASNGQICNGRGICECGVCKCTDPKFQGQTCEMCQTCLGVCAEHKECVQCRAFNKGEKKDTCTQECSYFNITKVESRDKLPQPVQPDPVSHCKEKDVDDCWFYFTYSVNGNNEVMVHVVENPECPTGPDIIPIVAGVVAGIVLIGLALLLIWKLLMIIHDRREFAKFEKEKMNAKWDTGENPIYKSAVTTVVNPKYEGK
Test: cell-based or functional assay

adhesion of transfected HEK293 cells to fibronectin, fold over vector-transfected cells, 15 and 30 min [fold]	ratio of P-ERK to ERK, fold relative to vector control, D-HEp3 cells [fold]	ratio of P-ERK to ERK, fold relative to vector control, HEK293 cells [fold]	Binder
1.2	1.9	1.2	B1

Biological target: T1, pro-uPA^S356A (UniProt P00749)
T1 construct: Coupled to the Biacore chip by EDC/NHS (200-1000 RU); also called immobilized pro-uPA
Test: SPR (Biacore 3000, 20 °C), pro-uPA S356A immobilized, soluble uPAR 1-100 nM as analyte

koff [s⁻¹]	kon [M⁻¹ s⁻¹]	Binder
0.000148	233000	B2
0.000219	252000	B3
0.000192	384000	B4
0.00106	226000	B5
0.000214	528000	B6

Biological target: T1, pro-uPA^S356A
Test: SPR, pro-uPA S356A immobilized; against uPAR wt

ΔΔG = RT ln[Kd(mut)/Kd(wt)] [kcal/mol]	Binder
0.19	B2
0.37	B3
0.05	B4
1.35	B5
-0.08	B6

Biological target: T1, pro-uPA^S356A
Test: SPR (Biacore 3000, 20 °C), pro-uPA S356A immobilized, soluble uPAR 1-100 nM as analyte; Kd = koff/kon

Kd [nM]	Binder
0.64	B2
0.87	B3
0.5	B4
4.7	B5
0.41	B6
